Data taken from paper PMC12136788.
The list shows a part of the results.

T1: UNK ZnF1-3 (human, UniProt Q9C0B0 31-174)
T1 sequence: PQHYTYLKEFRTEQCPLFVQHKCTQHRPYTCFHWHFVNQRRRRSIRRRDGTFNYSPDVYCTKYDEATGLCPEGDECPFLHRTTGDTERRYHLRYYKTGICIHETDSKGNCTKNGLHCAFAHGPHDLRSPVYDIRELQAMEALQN

B1: chr5:21408736:21408737:-_ENSMUSG00000042453_ENSMUST00000161356|mus_hu|mus_mus_mus_hu_False|78_108 (ssRNA)
RNA: GGGAGUUCUACAGUCCGACGAUCGUUGACAGCAUUAUAGAUGGUGGCUUCAUGGAACUGGAACGGGGAGCAGCCAAUGCUGUUAGAAGAGGAAGGAAGGCACUGGGUCUGUACGAGCUGCCAGGAAUCCGAUCUUGCAUCCUUCAACAGAGGAUUGAGCAUCA
B2: chr5:64892317:64892318:-_ENSG00000113595_ENST00000231524|hu_hu|motif|central (ssRNA)
RNA: GGGAGUUCUACAGUCCGACGAUCAGCUUGAGUAUUGAGGUAAUAAUGUUUCCACAAUGGUCUUAAUUUGUGUUUUCCACCGGCAUCCCAAAUAGUGAAUUUUAGAUUUUUAUAUUCUACAGUUUCCACGUUAAAACCAAUUGUCAACAGAGGAUUGAGCAUCA
B3: chr7:65419240:65419241:+_ENSG00000196715_ENST00000360768|hu_hu|FALSE|FALSE (ssRNA)
RNA: GGGAGUUCUACAGUCCGACGAUCCGGGCGUCAGUCCUGCUUGGGUUGCAGCUGCCGCUUCCAGGCCUCGUUCAAGUAAACUAGUCGUUUGUAGUUGAUAAUGAGAAGAAGGAAGUUCAGCACGUACGUGACGAUGCAGAUGAUCAACAGAGGAUUGAGCAUCA
B4: chr18:52892545:52892546:-_ENSG00000196628_ENST00000354452|hu_mus|FALSE|FALSE (ssRNA)
RNA: GGGAGUUCUACAGUCCGACGAUCUGAAAUUGCAGCUUUUUCUCUGUCCGAGUGAGAACAAAAUAUAAAAGCACCAAUUGAAAAAAAAAAUCUCAAAUGAUUUAAUUUAAAAAUUUAAUUUUUUGCUUUGUUUACAGAGUUGAACAACAGAGGAUUGAGCAUCA
B5: 46683936_46684056_841_CDS_ENSMUSG00000033319_ENSMUST00000036226|mouse|control|control (ssRNA)
RNA: GGGAGUUCUACAGUCCGACGAUCUCGAAGAGGAGUUGAGUUGGUUAAAGUCGUGUUGUUGACAGAUGCUCCGUGAUUUAACAAAGACUGGACAACCUUCAGAUGUCCUGCUGCAGAAGCGGCCCAUAAAGGGGGGGCCCCCUCCAACAGAGGAUUGAGCAUCA
B6: chr2:91446484:91446485:+_ENSMUSG00000040549_ENSMUST00000099716|mus_mus|FALSE|FALSE (ssRNA)
RNA: GGGAGUUCUACAGUCCGACGAUCCAACUUCUCAUCUGCCAUGUGUGUGCUGUAGAUGAGUCUUAGCUGCAUGAAUGUUGCUAUCAGAAACUGAUCAAUGUGGCCAGACAUAGCUUCAGCUUUGUCUUCCUGCCUCAGGACCUCCAACAGAGGAUUGAGCAUCA
B7: chr9:70551142:70551143:+_ENSMUSG00000054693_ENSMUST00000067880|mus_mus|FALSE|FALSE (ssRNA)
RNA: GGGAGUUCUACAGUCCGACGAUCACGCUGGUGUUUUUGGUGUAAUGAAUCCACAUUGUAAGAUAAUCCUUCAUAAUGUCUAAUAUAUUUAUUUAAAGGAUUUCCAUACUGACCUCCCAGCCCCGCCGCCCAGGAGAGGAGCAGCAACAGAGGAUUGAGCAUCA
B8: chr1:220276048:220276049:+_ENSG00000067704_ENST00000302637|hu_hu|hu_hu_hu_mus_True|38_58 (ssRNA)
RNA: GGGAGUUCUACAGUCCGACGAUCGCAAAUUGCCUGGUUGGCGGGAAUUGUCCAAGGCUGGGUGGUCCAAACUAAAAUACUAACAGGGGAUGAGGCAUCUAUAAGAGACUCCAACUUCGGAGGAGGUCUCAGGAGGGGGAAUCUCAACAGAGGAUUGAGCAUCA
B9: chr2:60073003:60073004:+_ENSMUSG00000026977_ENSMUST00000102748|mus_hu|FALSE|FALSE (ssRNA)
RNA: GGGAGUUCUACAGUCCGACGAUCAAGGAGGCUCUCUUUUAUUUUCUGCAAUCUUUCUGGAUCUCUUGAAGGCGCACUUUUAGUUUUAUCACUUUUACCAUCAGCUGAAUUCCAACCUGAAGGAAUAAUAUCUACUGUGAUCAUCAACAGAGGAUUGAGCAUCA
B10: chr2:198267338:198267339:-_ENSG00000115524_ENST00000335508|hu_hu|motif|central (ssRNA)
RNA: GGGAGUUCUACAGUCCGACGAUCAAUGAUUUCAACUAAACUUCUAAGAUGUGGCAAGAUGGCACAGCCCAUAAGAAUAGCGGUCUGUUGUACAAUCUUAAUACCAGUGUGUCUCGCUUGCCAGGACUUCUUGCUUUUGCACACCAACAGAGGAUUGAGCAUCA
B11: chr11:53076483:53076484:-_ENSMUSG00000020361_ENSMUST00000020630|mus_hu|FALSE|FALSE (ssRNA)
RNA: GGGAGUUCUACAGUCCGACGAUCUUCAAAUAAUUUUGGUCGUUCUUCAGAUUCCUGGAAACGUAUCUUAAUAGGUUGACCUAGAUUUUUUAAUUCAGCCAACUUAUCAACAUAAACUUGCUUUGGCUGGUCUUCUCCAUCCUCCAACAGAGGAUUGAGCAUCA
B12: chr10:127876205:127876206:+_ENSMUSG00000025373_ENSMUST00000096386|mus_hu|motif|central (ssRNA)
RNA: GGGAGUUCUACAGUCCGACGAUCUCUAUGGAACAAUUAUGGCCUGUGCCACAAGAGGCAGUGCCAACCAUAUUUUAGCAAAAGCGGGGAGUAGCUUCUUGCUAAACACAUCAACCCCCAACAGAUUAACCCCUACCCUAAACCCAACAGAGGAUUGAGCAUCA
B13: chr10:27425285:27425286:-_ENSG00000136758_ENST00000375972|hu_mus|FALSE|FALSE (ssRNA)
RNA: GGGAGUUCUACAGUCCGACGAUCUCUGUCCCGCAAAAGAAACCCCUUCACAAAUGAUGGUGCUAUAUUCUGUGCUUCUACUAAUCUUUCAGAGGUAGACUGCAAACGUCGUGUCCUUGAUUUCAACGUUUUGAAACCCCGAGACAACAGAGGAUUGAGCAUCA
B14: chr19:32867047:32867048:+_ENSMUSG00000013663_ENSMUST00000013807|mus_hu|motif|central (ssRNA)
RNA: GGGAGUUCUACAGUCCGACGAUCAGCACAAAGAUUGUAUAUCUUGUAAUGGUUUUUAUGCUUUGAAUCCAAAAACCUUACGGCAUCAUCAAUAUUGUUCCUGUAUACGCCUUCAAGUCUUUCUGCAGGAAAUCCCAUAGCAAUCAACAGAGGAUUGAGCAUCA
B15: chr12:111868959:111868960:+_ENSMUSG00000018707_ENSMUST00000018851|mus_hu|FALSE|FALSE (ssRNA)
RNA: GGGAGUUCUACAGUCCGACGAUCCAAUGUGAGCCACUCAUUGAUUUUGGGAUGUUCAGUAAUUGACACAGGAGUUUUAAACAUAACCUCCUCUCCUUCCCGAGAUGAAAUACCCAAAACAACAGAGUUAUCCUCGUUCAGGAUCAACAGAGGAUUGAGCAUCA
B16: 77926795_77926915_274_3pUTR_ENSG00000138758_ENST00000541121|human|control|control (ssRNA)
RNA: GGGAGUUCUACAGUCCGACGAUCCGGUGUCAACAAUGGUUAACUUCAGCCGUACAUUGCUUUCCUGAAGCUCAUAACUUCUGGCUUUUAACCGAACACCUGGUUCAUUGUGAGUAGCUGGGUCACUUUCAAAUUUGGUGUUGACAACAGAGGAUUGAGCAUCA
B17: 81594963_81596974_2799_CDS_ENSG00000153956_ENST00000356860|human|control|control (ssRNA)
RNA: GGGAGUUCUACAGUCCGACGAUCAAUCACACAAUCCAUUACGUCACUGUUUCUUUUGCAGUCACAAACUGGACCAGCACACGGAUCUCUGAUUGAGGUUUUGGUGAAAUUCUCUAUCCAGGAAUUUACAUCAAUUUUAAUUCCCAACAGAGGAUUGAGCAUCA
B18: chr18:10010065:10010066:-_ENSMUSG00000047879_ENSMUST00000092096|mus_hu|FALSE|FALSE (ssRNA)
RNA: GGGAGUUCUACAGUCCGACGAUCUAGAAUAAUAGGUGGAAUACUGGAAGAAGUUUUAUCCAUGGAAUCAAACAAAUCUCUAAGGGCUGCAGUAAUAUACUGCGCUGAAGCCAUUUCCCCUGAAGCUCUCAAGGCACCUGCAUACAACAGAGGAUUGAGCAUCA
B19: chr19:15979567:15979568:-_ENSMUSG00000024640_ENSMUST00000025542|mus_mus|motif|central (ssRNA)
RNA: GGGAGUUCUACAGUCCGACGAUCACAGGCUAAUUUUAAACCCUAGGCUCCCCAUCAGAAUGUUUAAAAGCAGCACCUGACGGAAAAAGCAAGCAGAAUAAUUCACAGGCAAUGAAUGGCUUAGAUGACUUAGGACUUUAAUGUCAACAGAGGAUUGAGCAUCA
B20: 3127346_3129100_1597_3pUTR_ENSG00000197386_ENST00000355072|human|control|control (ssRNA)
RNA: GGGAGUUCUACAGUCCGACGAUCUGUGUGCUGUGACCGUGGCUGUUCUGUGAUGAUGUCAUGACCUGCUGACCCUGGAGUGGAAACCCCUGAAGAAGCAGCCAGCUCUCCACUGAUCUCAUCCUUCACUGAGGCUGUUAAGGCCAACAGAGGAUUGAGCAUCA
B21: chr1:180854502:180854503:+_ENSG00000143324_ENST00000367589|hu_mus|FALSE|FALSE (ssRNA)
RNA: GGGAGUUCUACAGUCCGACGAUCAUAUAAUUUAAAAAGUACAACCAGGUUUAGAAGCCCCGAAUUUAAAAGCAGGCCAUGGUAGGGGUGUCGUAAAAUUCAACAUCACCUUUUAAUACAGCUGGGUUUAAAAAUAGCCACCAACAACAGAGGAUUGAGCAUCA
B22: 130535856_130535976_749_3pUTR_ENSMUSG00000025532_ENSMUST00000026608|mouse|control|control (ssRNA)
RNA: GGGAGUUCUACAGUCCGACGAUCGCGGCACAGGCCACACAAGCCUUUCUACCCCAGACAGCUGCAGUCCUGCUCCCCCAUCUUAGCCCCUGCCCUGCUCUGACCCCAAAGCACAAAGAUUUCUUUUCAUCUUAUUUUUGUGAUCAACAGAGGAUUGAGCAUCA

Target: T1, UNK ZnF1-3
Experiment: nsRBNS (natural sequence RNA bind-n-seq); RBNS binding buffer (assumed for nsRBNS): 25 mM Tris pH 7.5, 150 mM KCl, 3 mM MgCl2, 0.01% Triton X-100, 500 ug/ml BSA, 20 U/ml SUPERase-In, 4 C; UNK is unkempt and MSI1 is Musashi-1; names of the RNAs are library labels; protein concentration not given here; high values mean tight binding

Point of comparison: B14, binding signal 1.12 enrichment R. Against it:
- B1 — higher, 1.75 enrichment R
- B2 — higher, 2.03 enrichment R
- B3 — lower, 0.758 enrichment R
- B4 — higher, 1.37 enrichment R
- B5 — higher, 1.3 enrichment R
- B6 — lower, 0.512 enrichment R
- B7 — higher, 2 enrichment R
- B8 — higher, 2.47 enrichment R
- B9 — lower, 0.911 enrichment R
- B10 — lower, 0.832 enrichment R
- B11 — lower, 0.667 enrichment R
- B12 — higher, 1.16 enrichment R
- B13 — lower, 1.08 enrichment R
- B15 — higher, 1.21 enrichment R
- B16 — lower, 0.53 enrichment R
- B17 — lower, 0.705 enrichment R
- B18 — higher, 1.65 enrichment R
- B19 — higher, 1.97 enrichment R
- B20 — higher, 1.13 enrichment R
- B21 — higher, 3.06 enrichment R
- B22 — lower, 1.07 enrichment R
